Test results taken from the supplement of paper PMC4604168 (melanoma cell lines).
Some of the results follow. Repeats are few or missing, and single values can be far off.

Each molecule was assayed on A2058 (assay: cell count relative to DMSO control; melanoma cells; higher = more viable cells). Conditions: library dose: standard library concentration; 72 h.
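Further: cells treated in 1,536-well plates, then fixed and DAPI-stained, with nuclei counted from automated high-throughput microscope images.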

SMILES | cell count [%]
Cn1cncc1[C@@](N)(c1ccc(Cl)cc1)c1ccc2c(c1)c(-c1cccc(Cl)c1)cc(=O)n2C [tipifarnib] + C/C(O)=C(\C#N)C(=O)Nc1cc(Br)ccc1Br [LFM-A13] (first compound 0.05 µM, partner dose 10 µM) | 93.6
Nc1nc(F)nc2c1ncn2[C@@H]1O[C@H](CO)[C@@H](O)[C@@H]1O [fludarabine] + C[As](C)SC[C@H](NC(=O)CC[C@H](N)C(=O)O)C(=O)NCC(=O)O [Darinaparsin] (first compound 1 µM, partner dose 2 µM) | 75.5
OCc1c[nH]c2ccccc12 [Indole-3-carbinol] + C/C(O)=C(\C#N)C(=O)Nc1cc(Br)ccc1Br [LFM-A13] (first compound 4 µM, partner dose 10 µM) | 100
Cc1cc(N2CCOCC2)cc2[nH]c(-c3c(NC[C@@H](O)c4cccc(Cl)c4)cc[nH]c3=O)nc12 + C/C(O)=C(\C#N)C(=O)Nc1cc(Br)ccc1Br [LFM-A13] (first compound 1 µM, partner dose 10 µM) | 93.6
CS(=O)(=O)c1ccc(C(=O)Nc2ccc(Cl)c(-c3ccccn3)c2)c(Cl)c1 [vismodegib] + Cc1cc(SCc2sc(-c3ccc(C(F)(F)F)c(F)c3)nc2C)ccc1OCC(=O)O [GW0742] (first compound 5 µM, partner dose 10 µM) | 104
Cn1sc(=O)n(Cc2ccccc2)c1=O + C/C(O)=C(\C#N)C(=O)Nc1cc(Br)ccc1Br [LFM-A13] (first compound 2 µM, partner dose 10 µM) | 75.4
Cc1cc(Nc2cc(N3CCN(C)CC3)nc(/C=C/c3ccccc3)n2)n[nH]1 + C[As](C)SC[C@H](NC(=O)CC[C@H](N)C(=O)O)C(=O)NCC(=O)O [Darinaparsin] (first compound 0.2 µM, partner dose 2 µM) | 83
CO[C@@H]1[C@H](N(C)C(=O)c2ccccc2)C[C@H]2O[C@]1(C)n1c3ccccc3c3c4c(c5c6ccccc6n2c5c31)C(=O)NC4 [Midostaurin] + O=C(Oc1ccc([N+](=O)[O-])cc1)N1CCC(C(O)(c2ccc3c(c2)OCO3)c2ccc3c(c2)OCO3)CC1 [JZL184] (first compound 0.4 µM, partner dose 5 µM) | 27.6
O=C(Nc1ccccc1)c1cc([N+](=O)[O-])ccc1Cl + C/C(O)=C(\C#N)C(=O)Nc1cc(Br)ccc1Br [LFM-A13] (first compound 10 µM, partner dose 10 µM) | 88.3
CC(=O)c1c(C)c2cnc(Nc3ccc(N4CCNCC4)cn3)nc2n(C2CCCC2)c1=O [palbociclib] + Cc1cc(SCc2sc(-c3ccc(C(F)(F)F)c(F)c3)nc2C)ccc1OCC(=O)O [GW0742] (first compound 0.2 µM, partner dose 10 µM) | 90.6
CCCCCCCCCCCCCCCCCCOP(=O)([O-])OC1CC[N+](C)(C)CC1 [Perifosine] + O=C(Oc1ccc([N+](=O)[O-])cc1)N1CCC(C(O)(c2ccc3c(c2)OCO3)c2ccc3c(c2)OCO3)CC1 [JZL184] (first compound 2 µM, partner dose 5 µM) | 83.8
O=C(Nc1ccccc1)c1cc([N+](=O)[O-])ccc1Cl + O=C(Oc1ccc([N+](=O)[O-])cc1)N1CCC(C(O)(c2ccc3c(c2)OCO3)c2ccc3c(c2)OCO3)CC1 [JZL184] (first compound 10 µM, partner dose 5 µM) | 116
NC1(c2ccc(-c3nc4ccn5c(=O)[nH]nc5c4cc3-c3ccccc3)cc2)CCC1 + O=C(Oc1ccc([N+](=O)[O-])cc1)N1CCC(C(O)(c2ccc3c(c2)OCO3)c2ccc3c(c2)OCO3)CC1 [JZL184] (first compound 2 µM, partner dose 5 µM) | 87.9
C[C@@H](Oc1cc(-c2cnn(C3CCNCC3)c2)cnc1N)c1c(Cl)ccc(F)c1Cl [Crizotinib] + O=C(Oc1ccc([N+](=O)[O-])cc1)N1CCC(C(O)(c2ccc3c(c2)OCO3)c2ccc3c(c2)OCO3)CC1 [JZL184] (first compound 1 µM, partner dose 5 µM) | 65.4
COC(=O)c1sccc1S(=O)(=O)Nc1ccc(Nc2ccccc2)cc1OC + C/C(O)=C(\C#N)C(=O)Nc1cc(Br)ccc1Br [LFM-A13] (first compound 5 µM, partner dose 10 µM) | 105
O=C(O)[C@@H]1[O][Sb](=[O])([O][Sb]2(=[O])[O][C@H]([C@H](O)CO)[C@H](O)[C@H](C(=O)O)[O]2)[O][C@H]([C@H](O)CO)[C@@H]1O (stereo partly specified) [stibogluconate] + C[As](C)SC[C@H](NC(=O)CC[C@H](N)C(=O)O)C(=O)NCC(=O)O [Darinaparsin] (first compound 10 µM, partner dose 2 µM) | 82.6

SMILES | cell count [%]
C=CCNC1=C2C[C@@H](C)C[C@H](OC)[C@H](O)[C@@H](C)/C=C(\C)[C@H](OC(N)=O)[C@@H](OC)/C=C\C=C(/C)C(=O)NC(=CC1=O)C2=O [Tanespimycin] + Cc1cc(SCc2sc(-c3ccc(C(F)(F)F)c(F)c3)nc2C)ccc1OCC(=O)O [GW0742] (first compound 0.01 µM, partner dose 10 µM) | 97.3
CN(C)S(=O)(=O)c1ccc2c(c1)/C(=C/c1cc3c([nH]1)CCCC3)C(=O)N2 + O=C(Oc1ccc([N+](=O)[O-])cc1)N1CCC(C(O)(c2ccc3c(c2)OCO3)c2ccc3c(c2)OCO3)CC1 [JZL184] (first compound 2 µM, partner dose 5 µM) | 70.2
Nc1ncn([C@H]2C[C@H](O)[C@@H](CO)O2)c(=O)n1 [decitabine] + O=C(Oc1ccc([N+](=O)[O-])cc1)N1CCC(C(O)(c2ccc3c(c2)OCO3)c2ccc3c(c2)OCO3)CC1 [JZL184] (first compound 0.5 µM, partner dose 5 µM) | 74.2
O=S(=O)(c1ccccc1)N(CC(F)(F)F)c1ccc(C(O)(C(F)(F)F)C(F)(F)F)cc1 + O=C(Oc1ccc([N+](=O)[O-])cc1)N1CCC(C(O)(c2ccc3c(c2)OCO3)c2ccc3c(c2)OCO3)CC1 [JZL184] (first compound 7 µM, partner dose 5 µM) | 102
Cn1cnc2c(F)c(Nc3ccc(Br)cc3Cl)c(C(=O)NOCCO)cc21 [selumetinib] + C/C(O)=C(\C#N)C(=O)Nc1cc(Br)ccc1Br [LFM-A13] (first compound 0.075 µM, partner dose 10 µM) | 96.3
CO[C@@H]1[C@H](N(C)C(=O)c2ccccc2)C[C@H]2O[C@]1(C)n1c3ccccc3c3c4c(c5c6ccccc6n2c5c31)C(=O)NC4 [Midostaurin] + C/C(O)=C(\C#N)C(=O)Nc1cc(Br)ccc1Br [LFM-A13] (first compound 0.4 µM, partner dose 10 µM) | 35.9
CN(NC(=O)CC(=O)NN(C)C(=S)c1ccccc1)C(=S)c1ccccc1 + Cc1cc(SCc2sc(-c3ccc(C(F)(F)F)c(F)c3)nc2C)ccc1OCC(=O)O [GW0742] (first compound 0.03 µM, partner dose 10 µM) | 14.8
CC(=O)c1c(C)c2cnc(Nc3ccc(N4CCNCC4)cn3)nc2n(C2CCCC2)c1=O [palbociclib] + C/C(O)=C(\C#N)C(=O)Nc1cc(Br)ccc1Br [LFM-A13] (first compound 0.2 µM, partner dose 10 µM) | 99.1
O=C(Oc1ccc([N+](=O)[O-])cc1)N1CCC(C(O)(c2ccc3c(c2)OCO3)c2ccc3c(c2)OCO3)CC1 + O=c1cc(-c2cccc3c2Sc2ccccc2S3)oc(N2CCOCC2)c1 [KU55933] (first compound 5 µM, partner dose 5 µM) | 97
C[C@@H](N)c1ccc(C(=O)Nc2ccnc3[nH]ccc23)cc1 + O=C(Oc1ccc([N+](=O)[O-])cc1)N1CCC(C(O)(c2ccc3c(c2)OCO3)c2ccc3c(c2)OCO3)CC1 [JZL184] (first compound 2 µM, partner dose 5 µM) | 72.1
CS(=O)(=O)CCNCc1ccc(-c2ccc3ncnc(Nc4ccc(OCc5cccc(F)c5)c(Cl)c4)c3c2)o1 [lapatinib] + C[As](C)SC[C@H](NC(=O)CC[C@H](N)C(=O)O)C(=O)NCC(=O)O [Darinaparsin] (first compound 4 µM, partner dose 2 µM) | 71.8
CC(C)(C)c1cnc(CSc2cnc(NC(=O)C3CCNCC3)s2)o1 + O=C(Oc1ccc([N+](=O)[O-])cc1)N1CCC(C(O)(c2ccc3c(c2)OCO3)c2ccc3c(c2)OCO3)CC1 [JZL184] (first compound 0.05 µM, partner dose 5 µM) | 84
C[C@@H](Oc1cc(-c2cnn(C3CCNCC3)c2)cnc1N)c1c(Cl)ccc(F)c1Cl [Crizotinib] + C/C(O)=C(\C#N)C(=O)Nc1cc(Br)ccc1Br [LFM-A13] (first compound 1 µM, partner dose 10 µM) | 82.3
CCN(CC)CCNC(=O)c1c(C)[nH]c(/C=C2\C(=O)Nc3ccc(F)cc32)c1C [sunitinib] + C/C(O)=C(\C#N)C(=O)Nc1cc(Br)ccc1Br [LFM-A13] (first compound 2 µM, partner dose 10 µM) | 79.7
Cc1ccc(NC(=O)c2cccc(N(C)C)c2)cc1NC(=O)c1ccc(O)cc1 + C/C(O)=C(\C#N)C(=O)Nc1cc(Br)ccc1Br [LFM-A13] (first compound 10 µM, partner dose 10 µM) | 98.7
